Results taken from PubChem BioAssay AID504332 (National Center for Advancing Translational Sciences (NCATS), 2011).
About 31,000 (8.9%) of roughly 350,000 compounds were called active. This list was built around the results that the source calls inconclusive (neither active nor inactive); the mix of calls is not that of the screen. Calls follow the shape of the dose curve; as a rule, active = well fitted inhibition curve with a large enough effect; inconclusive = small, poorly fitted or top-dose-only effect; inactive = no such curve, though single readings can be large or run the other way. Potencies beside an inconclusive call are fits to weak or partial responses and may not hold up.
% is scaled to controls: 0 for no effect and ±100 for the full control effect; potency is read from the fitted curve at half-maximal effect; tags tell the direction and shape of the fitted curve.
Also: nearly all actives have a fitted effect of over 75% in size.

These compounds were tested against Histone-lysine N-methyltransferase EHMT2 (Homo sapiens) (UniProt Q96KQ7) (assay: qHTS Assay for Inhibitors of Histone Lysine Methyltransferase G9a). Conditions: G9a H3K9 monomethylation, AlphaScreen, 2 h; activity, negative = inhibition: at 59 µM (top of the series) unless noted.
UniProt Q96KQ7, sequence (Q96KQ7 whole entry, looked up): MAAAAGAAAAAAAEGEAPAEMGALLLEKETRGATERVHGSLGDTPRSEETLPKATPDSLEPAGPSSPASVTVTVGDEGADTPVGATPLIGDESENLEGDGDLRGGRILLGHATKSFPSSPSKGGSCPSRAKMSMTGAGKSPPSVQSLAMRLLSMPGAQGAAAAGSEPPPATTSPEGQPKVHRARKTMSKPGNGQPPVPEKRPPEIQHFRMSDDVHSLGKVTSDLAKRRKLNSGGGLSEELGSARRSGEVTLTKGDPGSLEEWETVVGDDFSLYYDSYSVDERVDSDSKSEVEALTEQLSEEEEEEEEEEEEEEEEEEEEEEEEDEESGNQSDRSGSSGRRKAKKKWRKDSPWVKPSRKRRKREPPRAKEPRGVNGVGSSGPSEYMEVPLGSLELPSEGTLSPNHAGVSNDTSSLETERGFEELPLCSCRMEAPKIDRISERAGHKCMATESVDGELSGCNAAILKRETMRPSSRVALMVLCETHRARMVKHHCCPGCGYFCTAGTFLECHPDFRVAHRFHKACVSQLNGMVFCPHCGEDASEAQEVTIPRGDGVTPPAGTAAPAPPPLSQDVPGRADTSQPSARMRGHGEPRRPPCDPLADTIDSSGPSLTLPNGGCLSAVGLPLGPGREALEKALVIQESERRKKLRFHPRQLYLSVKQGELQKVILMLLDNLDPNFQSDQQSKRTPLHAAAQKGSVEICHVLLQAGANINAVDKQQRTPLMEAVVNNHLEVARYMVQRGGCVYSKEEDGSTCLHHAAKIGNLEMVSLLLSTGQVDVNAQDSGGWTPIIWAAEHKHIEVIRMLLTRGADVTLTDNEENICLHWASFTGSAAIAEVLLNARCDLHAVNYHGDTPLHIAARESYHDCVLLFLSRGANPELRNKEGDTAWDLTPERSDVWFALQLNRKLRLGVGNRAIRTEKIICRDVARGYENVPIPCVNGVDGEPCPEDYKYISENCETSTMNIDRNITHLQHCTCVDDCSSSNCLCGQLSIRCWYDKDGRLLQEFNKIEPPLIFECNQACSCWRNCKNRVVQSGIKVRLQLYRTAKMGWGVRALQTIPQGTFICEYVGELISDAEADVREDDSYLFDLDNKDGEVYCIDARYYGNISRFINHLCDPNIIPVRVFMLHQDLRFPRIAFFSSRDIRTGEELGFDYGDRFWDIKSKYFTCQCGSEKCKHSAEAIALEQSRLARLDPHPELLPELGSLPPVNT
In short: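 Step 1: enzyme (final 20 nM) with compound, 15 min RT. Step 2: substrate peptide 500 nM and SAM 20 uM, 2 h RT. Step 3: anti-H3K9me1 antibody and AlphaScreen beads, 10 min, then plate read.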
For `c1ccc(Nc2nc3ccccc3n3cnnc23)cc1`, the Potency was inconclusive: 25.1 µM [inhibitor, partial curve, poor fit].
With `Cc1csc(NC(=O)CSc2nc3nc(C)cc(C)n3n2)n1` the activity, negative = inhibition was inactive: 10.5% [at 12.7 µM].
For `CCCn1c(=O)c2sccc2n2c(CCCC(=O)N3CCN(c4ccc(OC)cc4)CC3)nnc12`, the Potency was inconclusive: 17.8 µM [inhibitor, partial curve, poor fit].
`CCCN(CCC)Cc1c(C(=O)N/N=C/c2ccncc2)nnn1-c1nonc1N` was tested, and the “activity, negative = inhibition” value was inactive: 8.94% [at 102 µM].
`O=C(CSc1nnc(-c2ccncc2)n1CC1CCCO1)Nc1nccs1` (configuration not stated) was tested, and the Potency was inconclusive: 39.8 µM [inhibitor, single point].
For `CCc1noc(C)c1C(=O)OCC(=O)N(C)c1c(N)n(Cc2ccccc2)c(=O)[nH]c1=O`, the Potency was active: 50.1 µM.
For `Oc1c(Br)cc(/C=N/Nc2nncc3ccccc23)cc1Br`, the Potency was inconclusive: 89.1 µM [inhibitor, single point].
`Cc1ccc(N2CC(C(=O)N3CCCc4ccccc43)CC2=O)cc1` (configuration not stated) was tested, and the Potency was inconclusive: 14.1 µM [inhibitor, single point].
`COc1ccc(CNC(=O)c2cc3cccc4c3n2CC(C)S4)cc1` (configuration not stated) was tested, and the Potency was inconclusive: 7.08 µM [inhibitor, single point].
`CC1CCCCN1C(=S)NCc1ccco1` (configuration not stated) was tested, and the Potency was inconclusive: 50.1 µM [inhibitor, partial curve].
For `CN(CC(=O)Nc1ccc(Cl)cc1)C(=O)c1ccc(-n2cncn2)c([N+](=O)[O-])c1`, the “activity, negative = inhibition” value was inactive: -3.89% [at 102 µM].
For `COc1ccc(OC)c(/C(O)=C/C(=O)C(=O)Nc2ccccc2OC)c1`, the Potency was inconclusive: 89.1 µM [inhibitor, single point].
For `CCN(CC)c1ccc2cc(C(N)=O)c(=O)oc2c1`, the Potency was inconclusive: 31.6 µM [inhibitor, partial curve, poor fit].
In the case of `Cc1ccc(-c2nc(CN3CCCCC3c3cccc(F)c3)c(C)o2)o1` (configuration not stated), the Potency is reported as active: 39.8 µM.
`Cc1cccc(S(=O)(=O)C(C#N)c2nc3ccccc3nc2N2CC(C)OC(C)C2)c1` (configuration not stated) was tested, and the Potency was active: 8.91 µM.
In the case of `CCOc1ccccc1N1CC(C(=O)N2CCc3ccccc32)CC1=O` (configuration not stated), the “activity, negative = inhibition” value is reported as inactive: 64.9%.
In the case of `Cc1ccccc1OCCC(=O)Nc1cc(S(=O)(=O)N2CCOCC2)ccc1OC(C)C`, the Potency is reported as inconclusive: 50.1 µM [inhibitor, partial curve].
With `CCCCCCC(=O)N(O)C1CC(=O)N(c2ccccc2)C1=O` (configuration not stated) the Potency was active: 0.794 µM.
In the case of `O=C(Nc1cccc(Cl)c1)c1ccc2ncsc2c1`, the “activity, negative = inhibition” value is reported as inactive: 6.89% [at 102 µM].
With `Cc1c(NC(=S)NC(NC(=O)CC(C)C)C(Cl)(Cl)Cl)c(=O)n(-c2ccccc2)n1C` (configuration not stated) the Potency was inconclusive: 28.2 µM [inhibitor, single point].
`O=C(c1cc(Sc2cccc(Cl)c2)nc2ccccc12)N1CCN(c2ccccn2)CC1` was tested, and the Potency was inconclusive: 44.7 µM [inhibitor, partial curve, poor fit].
In the case of `c1ccc(-c2csc(=Nc3cccnc3)n2CC2CCCO2)cc1` (configuration not stated), the Potency is reported as inconclusive: 25.1 µM [inhibitor, single point].
`COc1ccc2[nH]c(C)c(CCNC(=S)Nc3ccc(F)cc3)c2c1` was tested, and the Potency was active: 56.2 µM.
With `CCOc1ccc(C2C(C(=O)c3ccco3)=C(O)C(=O)N2Cc2cccnc2)cc1OC` (configuration not stated) the Potency was inconclusive: 1.26 µM [inhibitor, partial curve, poor fit].
With `O=C(c1ccc2c(c1)OCO2)N1CCCc2ccccc21` the Potency was inconclusive: 3.98 µM [inhibitor, partial curve, poor fit].
In the case of `CCN(CC)CCN(C(=O)c1ccc(C(=O)c2ccccc2)cc1)c1nc2c(OC)cccc2s1`, the Potency is reported as inconclusive: 89.1 µM [inhibitor, single point].
`Cc1cc(C)n(-c2nnc(C)n2N)n1` was tested, and the Potency was active: 50.1 µM.
For `COc1ccc(N2CCN(C(=O)CCCCn3c(=O)[nH]c4ccsc4c3=O)CC2)cc1`, the Potency was inconclusive: 79.4 µM [inhibitor, partial curve, poor fit].
With `O=C(CCC1N=C2c3ccccc3N=C(SCc3ccc(F)cc3)N2C1=O)N1CCN(c2ccccc2)CC1` (configuration not stated) the Potency was inconclusive: 12.6 µM [inhibitor, partial curve].
For `COc1ccc(NC(=O)[C@@H]2[C@@H]3C(=O)N(C4CCCCC4)C(=O)[C@@H]3C3c4ccccc4C=CN32)cc1` (some centres not stated), the Potency was inconclusive: 8.91 µM [inhibitor, partial curve, poor fit].
In the case of `COc1cccc(CNC(=O)c2c[nH]n3c(=O)c(Cl)c(C)nc23)c1`, the Potency is reported as active: 44.7 µM.
For `C=CCN(C(=O)c1csnn1)C(C(=O)NCc1ccc(F)cc1)c1ccc(F)cc1` (configuration not stated), the Potency was inconclusive: 14.1 µM [inhibitor, partial curve, poor fit].
With `N#Cc1c(-n2ncnc2-c2ccccc2Cl)sc2c1CCCCC2` the “activity, negative = inhibition” value was inactive: -38.1%.
For `COC(=O)c1sc(=S)n(-c2ccccc2OC)c1N`, the Potency was active: 35.5 µM.
For `COc1ccc([N+](=O)[O-])cc1NC(=O)C(C)Sc1nc(-c2ccccc2)cs1` (configuration not stated), the Potency was inconclusive: 8.91 µM [inhibitor, full curve, poor fit].
For `COc1ccc2nc(SCC(=O)Nc3ccc(S(=O)(=O)Nc4onc(C)c4C)cc3)[nH]c2c1`, the Potency was inconclusive: 25.1 µM [inhibitor, single point].
`Nc1c(-c2ccccc2)cnn1-c1ccc(C(=O)O)cc1` was tested, and the Potency was inconclusive: 89.1 µM [inhibitor, single point].
With `CC(C)C(=O)Nc1nnc(NC(=S)Nc2ccccc2)s1` the Potency was inconclusive: 56.2 µM [inhibitor, partial curve, poor fit].
In the case of `O=C(/C=C/c1ccco1)NCCCN1CCN(CCCNC(=O)/C=C/c2ccco2)CC1`, the “activity, negative = inhibition” value is reported as inactive: -5.96%.
With `N#Cc1ccc(NC(=O)CSc2cn[nH]n2)cc1` the Potency was inconclusive: 79.4 µM [inhibitor, single point].
In the case of `CCN(CC)CCNC(=S)Nc1ccc2nc(N3CCOCC3)cc(C)c2c1`, the Potency is reported as inconclusive: 79.4 µM [inhibitor, single point].
In the case of `COc1ccc(CCNC(=O)c2cc3c(=O)n4ccccc4nc3n(Cc3ccco3)c2=N)cc1OC`, the Potency is reported as inconclusive: 79.4 µM [inhibitor, single point].
